According to PubChem BioAssay AID485344 (National Center for Advancing Translational Sciences (NCATS), 2010):
Hit rate of the full screen: of about 340,000 compounds, about 6,900 (2%) were called active. No stated cut-off is given here; in the data, active means inhibition above about 30%; inactive means below that, where a call was filed. This is a selection; strong and weak results do not stand in their true shares. Where no call is shown, the source filed none.

molecular target: D(2) dopamine receptor (Homo sapiens) (UniProt P14416); assay: HTS Assay for Allosteric Antagonists of the Human D2 Dopamine Receptor: Primary Screen for Antagonists; settings: HEK293 TREx D2 cells, calcium flux, dopamine EC80; at 10 µM; stronger effect = higher value; further: 0% is about no effect
Method in brief: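 HEK293 T-REx D2 cells, tet-induced, calcium dye no-wash. Cpd pintool add, 180 s kinetic, then EC80 DA, 180 s kinetic. Ca flux read.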

UniProt P14416, sequence (P14416 whole entry, looked up): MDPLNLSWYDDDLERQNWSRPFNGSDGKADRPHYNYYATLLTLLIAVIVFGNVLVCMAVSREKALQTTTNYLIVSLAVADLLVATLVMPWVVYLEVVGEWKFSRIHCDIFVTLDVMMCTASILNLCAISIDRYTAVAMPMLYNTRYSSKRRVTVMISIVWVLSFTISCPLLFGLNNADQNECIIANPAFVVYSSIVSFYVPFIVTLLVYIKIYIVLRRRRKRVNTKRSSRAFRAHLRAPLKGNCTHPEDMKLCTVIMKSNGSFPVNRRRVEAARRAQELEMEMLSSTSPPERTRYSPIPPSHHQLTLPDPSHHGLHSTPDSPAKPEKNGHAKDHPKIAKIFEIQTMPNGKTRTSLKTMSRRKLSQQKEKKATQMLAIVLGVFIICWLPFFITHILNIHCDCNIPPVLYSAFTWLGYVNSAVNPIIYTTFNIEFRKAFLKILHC

SMILES	inhibition
COc1ccc(NC(=O)c2ccc(NC(=O)CCS(=O)(=O)c3cccs3)cc2)cc1Cl	15.9%
Cc1ccc(-n2nnnc2SCC(=O)NCCc2ccccc2)cc1C	9.6%
Cc1cc(OCc2cc(C(=O)NC3CCC3)no2)cc(C)c1Cl	active: 43%
CCc1ccc(NC(=O)c2cnn3ccccc23)cc1	active: 41.8%
CCC(C)NC(=O)Cn1c(=O)n(-c2ccc(Cl)cc2)c(=O)c2c3c(sc21)CCCC3 (configuration not stated)	-4.29%
CCOc1ccc(N(CC(=O)OC)S(=O)(=O)c2ccc3c(c2)n(C)c(=O)c(=O)n3C)cc1	24.6%
Cc1ccc(C)c(N2CCN(C(=O)c3c(C)oc4nc(C)nc(N5CCOCC5)c34)CC2)c1	0.413%
O=C(NCCCN1CCCCC1)c1ccc2c(c1)ncn2C1CCCC1	active: 30.1%
CCCCC(=O)OC1=CN(Cc2ccccc2)S(=O)(=O)c2ccccc21	17.9%
O=C(O)c1ccc(Cl)c(NC(=S)NC(=O)c2cccc(COc3ccccc3)c2)c1	active: 36%
COc1ccc2c(c1)c(CC(=O)Nc1c(C)cccc1C)c(C)n2C(=O)c1ccc(Cl)cc1	13.7%
COc1ccc(OCC(=O)NCc2ccc3c(c2)CCN3C(=O)c2cccc(C)c2)cc1	-2.09%
CC(=O)N1CCCC1c1nc2ccccc2n1Cc1cccc(C)c1 (configuration not stated)	8.58%
COc1cccc(NC(=O)CN(C)C(=O)CSc2nc(C)cc(C)n2)c1	active: 41%
CC(C)c1ccc(C2NC(=O)c3c(sc4c3CCN(C)C4)N2)cc1 (configuration not stated)	8.75%
CCc1cccc(NC(=O)CC(c2ccc(OC)cc2)N2Cc3ccccc3C2=O)c1 (configuration not stated)	2.46%
CCOc1ccccc1NC(=O)Cn1c(=O)n(-c2ccc(C)cc2)c(=O)c2c1cnn2C	-4.78%
Cc1cc(C)cc(NC(=O)CCn2cnc3ccccc3c2=O)c1	-21.7%
COc1ccc(CNC(=O)Cn2cccc2C(=O)c2ccccc2C)cc1	-1.04%
Cc1cccc(N2CCN(c3nc4ccccc4c4nnc(C)n34)CC2)c1C	13.1%
CCN(CC)C(=O)c1sc2c(c1C)c(=O)n(-c1ccc(OC)cc1OC)c(=O)n2CC(=O)Nc1ccccc1	1.48%
COC(=O)c1ccc(NC(=O)CC2C(=O)N(c3ccccc3)C(=O)N2Cc2cccs2)cc1 (configuration not stated)	-8.6%
Cc1cc(C)cc(-n2ccnc2SCC(=O)Nc2ccccc2F)c1	-2.45%
Cc1cccc(NC(=O)c2c(NC(=O)c3ccccc3)sc3c2CCC3)c1	-2.75%
CSc1ncc(C(=O)NCc2cccc(C)c2)c(-c2ccccc2)n1	-6.71%

SMILES	inhibition
COc1ccccc1/C=C/C(=O)Nc1nc2n(n1)C(c1ccc(F)cc1)C=C(c1ccccc1)N2 (configuration not stated)	11.3%
Cc1ccc(OCCn2c(C3CC(=O)N(Cc4ccc(F)cc4)C3)nc3ccccc32)c(C)c1 (configuration not stated)	4.7%
C=CCc1ccccc1OCCSc1nc(-c2ccccc2F)nc2cc(=O)[nH]n12	-4.96%
O=S(=O)(NCC(c1ccccc1)N1CCc2ccccc21)c1ccc(Cl)cc1 (configuration not stated)	6.24%
Cc1nn(CCC(=O)Nc2cccc(C#N)c2)c(C)c1S(=O)(=O)N1CCCCC1	14.3%
Cc1cccc(C)c1NC(=O)Cn1cc(C(=O)C2CC2)c2ccccc21	7.05%
COc1cccc(C(=O)Nc2nnc(S(=O)(=O)N3CCCc4ccccc43)s2)c1	-6.89%
CCCCN(CC)CCCNC(=O)c1cn(C)c(=O)c2c1c1ccccc1n2C	4.79%
CCS(=O)(=O)NCCc1csc2nc(-c3ccc(OC)cc3)nn12	25.1%
COc1ccc(OC)c(S(=O)(=O)NCCS(=O)(=O)N2CCN(c3ccccc3F)CC2)c1	5.52%
CCc1cnc2c(c1SCc1cc(OC)cc(OC)c1)c(=O)n(C)c(=O)n2C	4.82%
Cc1ccc(C)c(CN2C(=O)c3ccccc3S(=O)c3ccc(C(=O)N4CCCCC4)cc32)c1 (configuration not stated)	-2.18%
CCOC(=O)c1ccc(NC(=O)CC(C)n2nc(C)cc2C)cc1 (configuration not stated)	10%
O=C(CN1C(=O)COc2ccc(S(=O)(=O)N3CCCCCC3)cc21)N1CCN(c2ccc(Cl)cc2)CC1	4.95%
COc1cc(NC(=O)Cc2noc3ccccc23)cc(OC)c1OC	-3.36%
COc1ccc(-c2ccc(=O)n(CC(=O)Nc3cc(OC)ccc3OC)n2)cc1	5%
Cc1cccc(-n2ncc3c(NNC(=O)c4ccccc4Cl)ncnc32)c1	3.62%
CCOC(=O)c1cccc(NC(=O)Nc2c(C)n(C)n(-c3ccccc3)c2=O)c1	-0.918%
O=c1[nH]c(C2CCCN(S(=O)(=O)c3ccccc3)C2)nc2c1nnn2Cc1ccccc1Br (configuration not stated)	-8.18%
COc1ccc(CNC(=O)c2cc(-c3ccc(Br)s3)nc3ccccc23)cc1	12.4%
Cc1ccc(C)c(Nc2nn3c(=O)c4ccc(C(=O)NCc5ccccc5)cc4nc3s2)c1	-14.2%
O=C(Nc1ccc2c(c1)OCO2)c1cc(-c2cccc(Cl)c2)on1	3.99%
Cc1ccc(C)c(N2CCN(C(=O)Cn3cnc4sc(C)c(S(=O)(=O)N5CCN(c6ncccn6)CC5)c4c3=O)CC2)c1	-3.57%
Clc1ccc(-c2ccc(CNCC3CCCO3)o2)cc1 (configuration not stated)	active: 35.2%
CCOC(=O)Cn1c(C2CC(=O)N(c3ccc(C)cc3)C2)nc2ccccc21 (configuration not stated)	-2.72%

SMILES	inhibition
CSc1cccc(NC(=S)NCCCN2CCN(c3ccc(F)cc3)CC2)c1	active: 43%
CCC(=O)N1c2ccccc2CC1C(=O)NCCc1ccc(SC)cc1 (configuration not stated)	2.66%
COCCn1c(-c2ccccc2)c(C)n2c3c(=O)n(C)c(=O)n(C)c3nc12	4.55%
Cc1ccccc1OCCn1cc(C(=O)C2CCCCC2)c2ccccc21	9.9%
COc1ccccc1-c1cc(C(=O)N2CCN(c3ccccc3)CC2)no1	-3.8%
O=[N+]([O-])c1ncccc1OCc1ccccc1Br	active: 34.3%
OC(COc1ccccc1F)CN1CCC(Cc2ccccc2)CC1 (configuration not stated)	active: 64.8%
COc1ccc(NC(=O)C(c2ccccc2)N2Cc3ccccc3C2=O)cc1 (configuration not stated)	-5.68%
Cc1cc(C)c2c(=O)cc(C(=O)Nc3ccc(C)c(Cl)c3)oc2c1	-25.2%
CCc1ccc(C2=CC(c3cccc(C)c3)n3c(nc4ccccc43)N2)cc1 (configuration not stated)	10.5%
Cc1cccc(N(CC(=O)NCc2ccccc2)S(C)(=O)=O)c1C	-7.52%
Cc1nnc(N2CCC(C(=O)NCCc3ccccc3)CC2)c2nn(-c3ccccc3)c(C)c12	8.32%
O=C(Nc1ccc(OCc2cc(=O)n3ccsc3n2)cc1)c1ccc(F)cc1	-4.24%
COc1ccc(CNC(=O)CSCc2nc(-c3ccccc3F)oc2C)cc1	-19.4%
CCc1ccc(-c2nc(CN3CCC(C(=O)NCCc4ccc(C)cc4)CC3)c(C)o2)cc1	-12.8%
O=C(CSc1nc2ccccc2n1Cc1ccc(F)cc1)N1CCN(c2ccc(F)cc2)CC1	4.34%
Cc1csc2nc(COC(=O)c3ccc(F)cc3)cc(=O)n12	1.08%
CCOC(=O)c1c(C)oc2nc(C)nc(Nc3cc(C)cc(C)c3)c12	10.1%
CC(=O)N1CCCc2cc(S(=O)(=O)N(CCN(C)C)Cc3ccccc3)ccc21	-13.1%
CCc1ccc2oc(C(=O)NCC(c3ccc(Cl)cc3)N3CCOCC3)c(C)c2c1 (configuration not stated)	4.71%
COc1ccc(-c2cc(OC(=O)c3ccccc3C)c3c(C)oc(C)c3c(=O)c2)cc1	-2.19%
CCc1cccc(C)c1NC(=O)c1cc(S(=O)(=O)N(C)Cc2ccccc2)ccc1F	16%
CC1CC(C)CN(C(=O)COC(=O)c2ccc([N+](=O)[O-])o2)C1 (configuration not stated)	active: 31.3%
CCC(=O)Nc1ccccc1-c1nc2ccccc2n(Cc2cccc(Br)c2)c1=O	22.4%
Cn1c(=O)c2sccc2n2c(CCCC(=O)Nc3ccc(Cl)cc3)nnc12	-19.8%

SMILES	inhibition
O=C(Nc1ccccc1Cl)c1ccc(F)c(S(=O)(=O)NCc2ccc(Cl)c(Cl)c2)c1	-5.12%
CCOC(=O)c1sc(N2C(=O)c3oc4cc(C)c(C)cc4c(=O)c3C2c2ccc(C)cc2)nc1C (configuration not stated)	1.16%
COc1ccc(CN2CCCN(CC(=O)Nc3cc(C)ccc3C)S2(=O)=O)cc1	1.82%
CCN(CCC(=O)Nc1cc([N+](=O)[O-])ccc1OC)Cc1ccccc1	active: 78.9%
CC(=O)Nc1ccc(NC(=O)CCc2c(C)nc3c(c(C)nn3-c3ccc(C)cc3)c2C)cc1	10.9%
CC(=O)Nc1ccccc1-c1nc2ccccc2n(C(C)C(=O)Nc2cc(Cl)ccc2C)c1=O (configuration not stated)	-25.1%
CCN(CC)S(=O)(=O)c1nnc(NC(=O)COc2ccc(C)cc2)s1	21.2%
Cc1ccc(C)c(NC(=O)CSc2nnc(CNC(=O)c3ccccc3)n2-c2ccccc2)c1	23.8%
CCOc1ccc(NC(=O)c2ccc(CN3C(=O)C(C)=C(c4ccc(C)cc4)S3(=O)=O)cc2)cc1	0.452%
CCOc1cc(Cn2c(-c3ccc(O)c(OCC)c3)nc3ccccc32)ccc1O	14.4%
COc1ccc(-n2c(-c3ccccc3F)nc3c(cnn3-c3ccc(C)cc3)c2=O)cc1	5.18%
O=C(CC1C(=O)OCCN1Cc1ccccc1)Nc1cccc(Cl)c1 (configuration not stated)	-3.02%
CCCCC(=O)N1CC(=O)Nc2ccc(F)cc2C1c1ccc(F)cc1 (configuration not stated)	-0.815%
CCOc1ccc(CN2CCCC(CO)(Cc3ccc(F)cc3)C2)cc1 (configuration not stated)	active: 68.1%
CCn1c(CNC(=O)C23CC4CC(CC(C4)C2)C3)nnc1SCC(=O)Nc1ccc(C)cc1	2.83%
CCOc1ccccc1NC(=O)CSc1nc2ccccc2nc1Cc1ccc(C)cc1	8.76%
Cc1ccc2c(Sc3ccccc3)c(C(=O)NCc3ccccc3F)[nH]c2c1	4.5%
Cc1nc2c3cccnc3nn2c(C)c1CCC(=O)NCc1ccccc1Cl	-13.5%
CC(=O)c1ccc(NC(=O)c2sc(-n3nc(C)c(CCC(C)C)c3C)nc2C)cc1	12.2%
CCCOc1cccc(C(=O)Nc2cc(-c3nc4ccccc4[nH]3)ccc2C)c1	13.4%
COc1cc(OC)c(NC(=O)c2sc3nc4n(c(=O)c3c2C)CCCC4)cc1Cl	8.37%
COc1ccc(S(=O)(=O)NCCc2sc(C)nc2C)cc1	4.81%
